# “And” between values parts separate entries of the source, which are not always exact repeats. Identical values can stand only once. Inconclusive results, whose numbers are uncertain, are shown with a selection of clear calls. For some assays here: Potencies beside an inconclusive call are fits to weak or partial responses and may not hold up. The source made the active and inactive calls. Unless noted, calls follow the shape of the dose curve; as a rule, active = well fitted curve in the direction sought with a large enough effect; inconclusive = small, poorly fitted or top-dose-only effect, or another doubt; inactive = no such curve, though single readings can be large; an effect the other way counts as inactive or inconclusive.
# What was measured:
# [1] = qHTS of pediatric cancer cell lines to identify multiple opportunities for drug repurposing: Primary screen for SJ-GBM2 cells (AID 1347091);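 also: plate controls were DMSO neutral control for no effect and bortezomib for full effect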
# Summary of the method: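 Cell viability, CellTiter-Glo luminescence; 500-1,000 cells/well, 8- or 11-point titration, 48 h compound exposure at 37 degrees C, 5% CO2. Controls: DMSO neutral, bortezomib 2.3 µM final as positive.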
# [2] = qHTS of pediatric cancer cell lines to identify multiple opportunities for drug repurposing: Primary screen for MG 63 (6-TG R) cells (AID 1347105); settings: MG 63 (6-TG R) viability, CellTiter-Glo, 48 h; activity change, negative = cytotoxic: at 46 µM (top of the series) unless noted; also: nearly all actives have a fitted effect of over 50% in size; also: potency is read from the fitted curve at half-maximal effect; as to activity change, negative = cytotoxic: % is scaled to controls: 0 for no effect and ±100 for the full control effect
# Summary of the method: (§1)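 Plated cells (500-1,000 per well, growth media) were allowed to settle for 5 hours, treated with compound dilutions for 48 hours, then lysed with CellTiter-Glo for 15 min at room temperature before luminescence reading.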
# [3] = Primary qHTS for inhibitors of nuclear receptor binding SET domain protein 2 (NSD2) in an isogenic RCH-ACV NSD2 p.E1099K mutant (9B) (AID 1645876); also: % is scaled to controls: 0 for no effect and ±100 for the full control effect; nearly all actives have a fitted effect of over 70% in size
# [4] = qHTS Assay for Identification of Small Molecule Antagonists for NFkB Signaling Pathway. (AID 624479; calls by dose curve;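 also: pathway stimulated with TNF alpha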; also: potency is read from the fitted curve at half-maximal effect; as to activity change, negative = inhibition: % is scaled to controls: 0 for no effect and ±100 for the full control effect)
# [5] = qHTS of pediatric cancer cell lines to identify multiple opportunities for drug repurposing: Primary screen for NB-EBc1 cells (AID 1347095); also: potency is read from the fitted curve at half-maximal effect
# Summary of the method: as §1
# [6] = qHTS of pediatric cancer cell lines to identify multiple opportunities for drug repurposing: Primary screen for Saos-2 cells (AID 1347097); settings: Saos-2 viability, CellTiter-Glo ATP luminescence, 48 h; activity change, negative = cytotoxic: at 46 µM (top of the series); also: potency is read from the fitted curve at half-maximal effect; nearly all actives have a fitted effect of over 40% in size
# Summary of the method: as §1
# [7] = Quantitative High-Throughput drug screen in 47 multiple myeloma cell lines against the NCATS MIPE library collection: H1112_PLB cell viability assay (AID 1918967; also: potency is read from the fitted curve at half-maximal effect; nearly all actives have a fitted effect of over 30% in size)
# Summary of the method: (§2)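 qHTS of the MIPE 4.0 collection: 500 myeloma cells/well, 48 h drug exposure at 37C in 5% CO2, then CellTiter-Glo for 5 min at room temperature before luminescence reading.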
# [8] = Quantitative High-Throughput drug screen in 47 multiple myeloma cell lines against the NCATS MIPE library collection: MMM1_PLB cell viability assay (AID 1918976); also: potency is read from the fitted curve at half-maximal effect; nearly all actives have a fitted effect of over 35% in size
# Summary of the method: (§3)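 ATP-based luminescence (CellTiter-Glo, 5 min RT incubation) quantified surviving cells following two days' treatment with MIPE 4.0 agents at 37 °C, 5% CO2.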
# [9] = Quantitative High-Throughput drug screen in 47 multiple myeloma cell lines against the NCATS MIPE library collection: OPM2_DSMZ cell viability assay (AID 1919872); also: potency is read from the fitted curve at half-maximal effect; nearly all actives have a fitted effect of over 30% in size
# Summary of the method: as §2
# [10] = qHTS for identification of novel therapeutic agents for treatment of microphthalmiaassociated transcription factor (MiT) renal cell carcinoma (RCC) (AID 1963991; calls by dose curve; also: potency is read from the fitted curve at half-maximal effect); settings: TFE3-RCC UOK109 viability, CellTiter-Glo, 48 h; active = Z-AUC below -0.8 in all three lines
# Summary of the method: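 UOK109/UOK124/UOK145 (TFE3 fusions, three partners); 500 cells/well; MIPE v4.0, 1912 cpds, 11 conc.; 48 h, 37 C; CellTiter-Glo, 15 min RT; lum. Norm.: DMSO 100%, empty 0%.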
# [11] = qHTS of pediatric cancer cell lines to identify multiple opportunities for drug repurposing: Primary screen for TC32 cells (AID 1347089); also: potency is read from the fitted curve at half-maximal effect; nearly all actives have a fitted effect of over 60% in size
# Summary of the method: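 qHTS, TC32, 48 h drug treatment, CellTiter-Glo luminescence as a proxy for metabolically active cells; primary top concentration 46 µM (MIPE 11-pt, NPC 8-pt); confirmatory 11-pt.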
# [12] = qHTS of pediatric cancer cell lines to identify multiple opportunities for drug repurposing: Primary screen for NB1643 cells (AID 1347099); also: potency is read from the fitted curve at half-maximal effect; nearly all actives have a fitted effect of over 50% in size
# Summary of the method: as §1
# [13] = qHTS of pediatric cancer cell lines to identify multiple opportunities for drug repurposing: Primary screen for control Hh wild type fibroblast cells (AID 1347106); also: potency is read from the fitted curve at half-maximal effect; nearly all actives have a fitted effect of over 55% in size
# Summary of the method: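 Cells (500-1,000/well) in growth media were settled 5 h at 37 degrees C, then given compounds for 48 h. Viability was read as CellTiter-Glo luminescence. Primary runs used MIPE at 11 points (0.78 nM-46 µM) and NPC at 8 points (0.59 nM-46 µM); follow-ups used 11 points.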
# [14] = qHTS to identify inhibitors of the type 1 interferon - major histocompatibility complex class I in skeletal muscle: primary screen against the NCATS Mechanism Interrogation Plate v5.0 (MIPE) Libary (AID 1347411); settings: iHSKM cells + IFN-b, HiBiT-tagged MHC-I luminescence, 24 h; activity change, negative = inhibition: at 45.8 µM (top of the series); also: potency is read from the fitted curve at half-maximal effect; nearly all actives have a fitted effect of over 65% in size
# Summary of the method: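 HLA-B HiBit myoblasts, dexamethasone-free medium + 4 ng/ml IFN-b, 24 h compound, 11-pt 1:3 from 46 uM final. Readout: Nano-Glo HiBiT lytic luminescence after 10 min lysis, RT.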
# [15] = Cytotoxicity counterscreen for NFkB agonists and antagonists (AID 624476); also: potency is read from the fitted curve at half-maximal effect
# [16] = Quantitative High-Throughput drug screen in 47 multiple myeloma cell lines against the NCATS MIPE library collection: KMS27_JCRB cell viability assay (AID 1918970); settings: KMS27 myeloma cells, CellTiter-Glo ATP viability, 48 h; viability (% of DMSO): at 45.8 µM (top of the series); also: potency is read from the fitted curve at half-maximal effect; nearly all actives have a fitted effect of over 30% in size
# Summary of the method: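 ATP-based viability (CellTiter-Glo luminescence) is measured in cells treated 48 h with approved and investigational drugs at 37 °C. Controls are DMSO-only wells for full viability and media-only wells for none.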
# [17] = qHTS of pediatric cancer cell lines to identify multiple opportunities for drug repurposing: Primary screen for SK-N-SH cells (AID 1347098); settings: SK-N-SH viability, CellTiter-Glo luminescence, 48 h; activity change, negative = cytotoxic: at 57 µM (top of the series); also: potency is read from the fitted curve at half-maximal effect; nearly all actives have a fitted effect of over 65% in size
# Summary of the method: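 Cells (500-1,000/well) rested 5 h, then received compounds for 48 h; metabolically active cells were measured by CellTiter-Glo luminescence. Final concentrations spanned up to 46 µM (MIPE, 11-point) or 0.59 nM-46 µM (NPC, 8-point) in primary screens, 11-point in follow-ups.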
# [18] = Quantitative High-Throughput drug screen in 47 multiple myeloma cell lines against the NCATS MIPE library collection: OCIMY7_PLB cell viability assay (AID 1918987); settings: OCI-MY7 myeloma viability, CellTiter-Glo ATP, 48 h; viability (% of DMSO): at 45.8 µM (top of the series); also: nearly all actives have a fitted effect of over 65% in size; also: potency is read from the fitted curve at half-maximal effect
# Summary of the method: as §3
# Tags tell the direction and shape of the fitted curve.
smiles,measurement,setting,value
Oc1cn2c(n1)Nc1ccc(Cl)c(Cl)c1C2,Potency,[1],inactive
same,Potency,[2],inactive
same,Potency,[3],inactive
S=C(NCc1ccc2c(c1)OCO2)N1CCN(c2ncnc3c2oc2ccccc23)CC1,Potency,[4],"inconclusive: 14.9 µM [inhibitor, partial curve]"
same,Potency,[5],"inconclusive: 8.55 µM [cytotoxic, full curve]"
same,Potency,[6],"inconclusive: 27 µM [cytotoxic, partial curve]"
same,Potency,[7],active: 0.605 µM
same,Potency,[8],active: 1.21 µM
same,Potency,[9],"inconclusive: 48.1 µM [cytotoxic, single point]"
same,Potency,[10],"inconclusive: 8.55 µM [falling, full curve]"
COc1cc2ncn(-c3cc(OCc4ccccc4C(F)(F)F)c(C(N)=O)s3)c2cc1OC,Potency,[4],inactive
same,Potency,[11],"inconclusive: 2.62 µM [cytotoxic, full curve]"
same,Potency,[6],active: 10.5 µM
same,Potency,[12],"inconclusive: 662 nM [cytotoxic, full curve]"
same,Potency,[13],active: 18.7 µM
same,Potency,[14],"inconclusive: 18.6 µM [inhibitor, partial curve, poor fit]"
same,Potency,[9],"inconclusive: 1.87 µM [cytotoxic, full curve]"
same,Potency,[10],"inconclusive: 6.62 µM [falling, full curve]"
O=c1cc(C2=CC=CC3Sc4ccccc4SC23)oc(N2CCOCC2)c1 (centres undefined),Potency,[15],"inconclusive: 37.2 µM [inhibitor, single point]"
same,Potency,[4],"inconclusive: 29.8 µM [inhibitor, single point]"
CS(=O)(=O)c1cccc(CNc2nc(Nc3ccc4c(c3)CCC(=O)N4)ncc2C(F)(F)F)c1,Potency,[11],"inconclusive: 16.5 µM [cytotoxic, partial curve]"
same,Potency,[6],active: 16.6 µM
same,Potency,[12],active: 16600 nM
same,Potency,[7],"inconclusive: 18.7 µM [cytotoxic, partial curve]"
same,Potency,[16],"inconclusive: 11800 nM [cytotoxic, partial curve, poor fit]"
same,Potency,[10],"inconclusive: 23.5 µM [falling, single point]"
NC1(c2ccc(-c3nc4ccn5c(=O)[nH]nc5c4cc3-c3ccccc3)cc2)CCC1,Potency,[15],"inconclusive: 29.6 µM [inhibitor, partial curve, poor fit]"
same,Potency,[4],"inconclusive: 29.8 µM [inhibitor, single point]"
same,Potency,[11],"inconclusive: 16.5 µM [cytotoxic, partial curve] and inconclusive: 13.3 µM [cytotoxic, partial curve]"
same,Potency,[5],active: 2.35 µM and active: 11.9 µM
same,Potency,[6],"active: 10.5 µM and inconclusive: 1.68 µM [cytotoxic, full curve]"
same,Potency,[17],active: 19.2 µM and active: 17.2 µM
same,Potency,[2],active: 7.43 µM and active: 13.3 µM
same,Potency,[13],"inconclusive: 1.18 µM [cytotoxic, full curve, poor fit]"
same,Potency,[14],"inconclusive: 41.5 µM [inhibitor, single point]"
same,Potency,[16],"inconclusive: 118 nM [cytotoxic, full curve, poor fit]"
same,Potency,[8],active: 0.332 µM
same,viability (% of DMSO),[18],inconclusive: 27.4% [cytotoxic]
same,Potency,[9],"inconclusive: 23.5 µM [cytotoxic, single point]"
O=C(C=Cc1cccc(S(=O)(=O)Nc2ccccc2)c1)NO,Potency,[15],"inconclusive: 26.4 µM [inhibitor, single point]"
same,Potency,[4],"inconclusive: 16.8 µM [inhibitor, partial curve, poor fit]"
same,Potency,[11],active: 9.54 µM
same,Potency,[12],active: 679 nM
same,Potency,[2],active: 6.79 µM
same,Potency,[13],"inconclusive: 34 µM [cytotoxic, partial curve]"
same,Potency,[7],active: 5.4 µM
same,Potency,[8],active: 10.8 µM
same,Potency,[18],active: 2.15 µM
C[C@@]12O[C@@H](C[C@]1(O)CO)n1c3ccccc3c3c4c(c5c6ccccc6n2c5c31)CNC4=O,Potency,[15],active: 3.32 µM
same,Potency,[11],active: 1.86 µM
same,Potency,[5],active: 1.18 µM
same,Potency,[6],active: 3.32 µM
same,Potency,[2],active: 4.69 µM
same,Potency,[13],active: 23.5 µM
same,Potency,[14],active: 0.739 µM
same,Potency,[16],"inconclusive: 296 nM [cytotoxic, full curve, poor fit]"
same,Potency,[8],active: 3.32 µM
same,Potency,[9],active: 1.48 µM
same,Potency,[10],active: 5.26 µM
